Consider 58 molecules from PubChem BioAssay AID463173 (ICCB-Longwood Screening Facility, Harvard Medical School, 2010).

Each structure is given as a SMILES string. Hit rate of the full screen: of about 52,000 compounds, about 1,700 (3.3%) were called active. No stated cut-off is given here; in the data, active means survival mostly below about 52% (no sharp cut-off); inactive means mostly above about 56%. The list shows a part of the results.

The assay relates to Wild type. The assay is described as follows: S. aureus survival, RN4220 and DeltatarO strains – OD600, teichoic acid synthesis inhibitors, primary screen (AID 463173). The conditions noted are these: S. aureus RN4220 wild type/DeltatarO growth, OD600, 18 h, active compounds read low, screened at 18.75 µg/mL (by protocol).
For the molecule `CCCCN(CCCC)CCNC(=O)Cn1nc(C)n2c(cc3sccc32)c1=O`, the survival is inactive: 89%.

Regarding `COc1cccc(CNn2cnnc2)c1O`, the survival was inactive: 111%.

As to `O=c1c2oc3ccccc3c2n(Cc2cccc(Cl)c2)c(=O)n1Cc1ccco1`, the survival is inactive: 57%.

As to `Cc1ccc2occ(CC(=O)N(Cc3ccc(Cl)cc3)C3CCS(=O)(=O)C3)c2c1` (stereo not drawn), the survival is inactive: 78%.

As for `COc1ccc(-c2cc(C(F)(F)F)nc(SCCC(=O)Nc3ccccc3F)n2)cc1`, the survival was inactive: 65%.

As to `CCOC(=O)c1ccccc1NC(=O)CSc1ccc(-c2cccs2)nn1`, the survival was inactive: 80%.

`O=C(Cc1ccccc1)NC1CC(=O)N(c2ccccc2)C1` (stereo not drawn): the survival was inactive: 76%.

Turning to `CCC(=O)N1N=C2CCCCC2C1(O)C(F)(F)F` (stereo not drawn), the survival is inactive: 105%.

As to `COc1ccccc1N1CCN(C(=O)CN2C(=O)COc3ccc(S(=O)(=O)N4CCCCCC4)cc32)CC1`, the survival is inactive: 89%.

`Cc1cccc(OCC(=O)Nc2nc3c(s2)CC(C(C)(C)C)CC3)c1C` (stereo not drawn): the survival was inactive: 108%.

Take `CCc1ccc(Nc2nn(-c3ccc(OC(F)(F)F)cc3)nc2C(C)=O)cc1`: the survival is inactive: 88%.

Turning to `Cn1cc(S(=O)(=O)c2cccc(Cl)c2)c(=O)c2cc(F)c(N3CCN(c4ccc(F)cc4)CC3)cc21`, the survival was inactive: 81%.

With `Cc1ccc(-c2noc(CNS(=O)(=O)c3ccc(F)cc3)n2)cc1`, the survival was inactive: 84%.

With `Cc1nnc(N2CCN(C(=O)NC(C)C)CC2)c2nn(-c3ccccc3)c(C)c12`, the survival was inactive: 75%.

For `Cc1c(NC(=O)c2cc(-c3ccc(F)cc3)on2)c(=O)n(-c2ccccc2)n1C`, the survival was inactive: 82%.

`CCN(CC)c1ccc(NC(=O)c2cnc3c(-c4ccccc4)c(C)nn3c2C)c(C)c1`: the survival is inactive: 85%.

`COC(=O)C(C)Oc1ccc(N2C(=O)c3ccccc3C2=O)cc1` (stereo not drawn): the survival is inactive: 107%.

As for `COc1ccc(NC(=O)CN2C(=O)C3(SCC(=O)N3c3ccccc3)c3ccccc32)cc1Cl` (stereo not drawn), the survival was inactive: 113%.

On to `CC(C)NC(=O)CC1Sc2ccccc2NC1=O` (stereo not drawn), for which the survival was inactive: 97%.

As for `O=c1cc(-c2ccc(F)cc2)nc(SCc2nc(-c3cccc(C(F)(F)F)c3)no2)[nH]1`, the survival is inactive: 80%.

For the molecule `Cc1c(C(=O)N(Cc2cccc(F)c2)C2CCS(=O)(=O)C2)oc2cc(Br)ccc12` (stereo not drawn), the survival was inactive: 57%.

Regarding `COc1ccc(CNC(=O)c2cccc(N3CCCS3(=O)=O)c2)cc1OC`, the survival is inactive: 63%.

On to `CC(C)c1ccc(NC(=O)c2ccc(Cn3nc(N4CCN(c5ccccc5)CC4)ccc3=O)o2)cc1`, for which the survival is inactive: 76%.

`O=C(Cn1ncn2nc(-c3cccs3)cc2c1=O)NCc1ccccc1Cl`: the survival was inactive: 94%.

`CCn1c(=NC(=O)c2ccc(S(=O)(=O)N3CCCC3)cc2)sc2cc(Br)ccc21`: the survival is inactive: 63%.

Take `CCOC(=O)c1c(C)c(-c2ccccc2)n(CC(=O)NC2CCCCCC2)c1C`: the survival is inactive: 89%.

For `CCc1ccc(N2C(=O)CSC23C(=O)N(Cc2cccc(OC)c2)c2ccccc23)cc1` (stereo not drawn), the survival is inactive: 73%.

With `C=CCc1ccc(OCc2ccc(C(=O)Nc3ccc(NC(C)=O)cc3)o2)c(OC)c1`, the survival is inactive: 131%.

As for `Cc1nn(-c2ccccc2)c(Cl)c1C1N2CCCN1CC2` (stereo not drawn), the survival is inactive: 98%.

With `O=C(Nc1ccc(NC(=O)C2CCCCC2)nc1)C1CC1`, the survival is inactive: 90%.

Turning to `Cc1cccc(Cn2cnc3c(oc4ccccc43)c2=O)c1`, the survival was inactive: 85%.

Consider `COc1cccc(NC(=O)Cn2cc(C(=O)c3ccc(F)cc3)c(=O)c3cc(OC)ccc32)c1`, for which the survival is inactive: 85%.

As for `N#Cc1ccc(NC2=NS(=O)(=O)c3ccccc32)cc1`, the survival was inactive: 92%.

As to `Cc1cc(C)cc(NC(=O)N2CCC(CN3CCc4ccccc4C3)CC2)c1`, the survival was inactive: 81%.

For the molecule `CCC(=O)N1CCc2cc(CNS(=O)(=O)c3ccc(Br)s3)ccc21`, the survival was inactive: 60%.

Turning to `O=C(c1ccccc1Cl)N(Cc1ccco1)Cc1cc2cc3c(cc2nc1Cl)OCO3`, the survival was inactive: 111%.

`CCN1CCN(C(c2ccccc2F)c2c(O)cc(C)n(CCOC)c2=O)CC1` (stereo not drawn): the survival was inactive: 45%.

With `CCc1c(C)sc2c1CCN(C(=O)Nc1cc(C)ccc1OC)C2c1ccc(F)cc1` (stereo not drawn), the survival was inactive: 148%.

Take `COc1ccc(-c2c(C)nn3c(N4CCN(c5ccccc5F)CC4)cc(C)nc23)cc1OC`: the survival was inactive: 80%.

Turning to `Cc1ccc(NS(=O)(=O)c2ccc3[nH]c4c(c3c2)CCCCCC4)cc1`, the survival was inactive: 71%.

Regarding `O=C(C1CC2c3ccccc3C1c1ccccc12)N1CCOCC1` (stereo not drawn), the survival is inactive: 111%.

With `CC1CCCN(S(=O)(=O)c2ccc(N3CCCCS3(=O)=O)cc2)C1` (stereo not drawn), the survival is inactive: 91%.

As for `CCCN(CCC)CCNC(=O)c1sc2nc3n(c(=O)c2c1C)CCCCC3`, the survival was inactive: 85%.

Turning to `Cc1ccc(C)c(N2C(=O)N(C)c3ccccc3S2(=O)=O)c1`, the survival is inactive: 112%.

With `COC(=O)c1c(NC(=O)c2nc(SCc3ccccc3C)ncc2Cl)sc2c1CCCC2`, the survival was inactive: 123%.

In the case of `COc1ccc(-n2c(C)nc3cc(C(=O)NC4CCCCCC4)ccc32)cc1`, the survival was inactive: 133%.

With `CCc1cccc(NC(=O)C2CCC(CNS(=O)(=O)c3ccc4c(c3)CCCC(=O)N4)CC2)c1` (stereo not drawn), the survival is inactive: 66%.

Consider `CCOc1ccc(CCNC(=O)Cn2ncc3c([nH]c4ccccc43)c2=O)cc1OCC`, for which the survival is inactive: 75%.

In the case of `Cc1cncn1CCc1nc2c3ccccc3nc(SCC(=O)Nc3ccc(F)cc3)n2n1`, the survival was inactive: 70%.

Consider `CCOc1ccccc1CNC(=O)c1cnc2sc(N3CCOCC3)nn2c1=O`, for which the survival is inactive: 74%.

`CCN(C(=O)Cn1c(=O)nc(-c2ccccc2)c2cc(Cl)ccc21)c1cccc(C)c1`: the survival was inactive: 85%.

`CCOc1ccc(-n2c(SCC(=O)Nc3ccc4c(c3)OCCO4)nc3c([nH]c4ccccc43)c2=O)cc1`: the survival was inactive: 121%.

With `Clc1ccccc1-c1nnc(-c2ccccc2CNc2ccc(Br)cc2)o1`, the survival was inactive: 91%.

In the case of `CCc1nc2ccc(C(=O)NCc3ccc(SC)cc3)cc2nc1CC`, the survival is inactive: 68%.

On to `OCCN1CCN(C(c2ccc(Cl)cc2Cl)c2sc3nc(-c4ccco4)nn3c2O)CC1` (stereo not drawn), for which the survival is inactive: 77%.

In the case of `CC(=O)Nc1nc(C(=O)O)cs1`, the survival was inactive: 116%.

Regarding `CCOc1ccccc1NC(=O)CCc1c(C)nc2c(c(C)nn2-c2ccccc2)c1C`, the survival was inactive: 73%.

On to `C#CCSc1nc(-c2ccccc2)c2cc(Cl)ccc2n1`, for which the survival is inactive: 77%.
